# Publication PMC4336329 (PLoS ONE, 2015)
# Hit rate of the full screen: of about 310,000 compounds, about 14,000 (4.5%) showed an effect of 50% or more. The effect is printed as a negative number. The list shows a part of the results.
# Target: human ether-à-go-go-related gene (hERG) potassium channel (human, UniProt Q12809)
# Experiment: primary screen, population patch clamp on CHO cells stably expressing hERG
# 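Further: peak tail current of the secondary pulse compared with the same well before compound.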
# human ether-à-go-go-related gene (hERG) potassium channel, sequence (Q12809 whole entry, looked up): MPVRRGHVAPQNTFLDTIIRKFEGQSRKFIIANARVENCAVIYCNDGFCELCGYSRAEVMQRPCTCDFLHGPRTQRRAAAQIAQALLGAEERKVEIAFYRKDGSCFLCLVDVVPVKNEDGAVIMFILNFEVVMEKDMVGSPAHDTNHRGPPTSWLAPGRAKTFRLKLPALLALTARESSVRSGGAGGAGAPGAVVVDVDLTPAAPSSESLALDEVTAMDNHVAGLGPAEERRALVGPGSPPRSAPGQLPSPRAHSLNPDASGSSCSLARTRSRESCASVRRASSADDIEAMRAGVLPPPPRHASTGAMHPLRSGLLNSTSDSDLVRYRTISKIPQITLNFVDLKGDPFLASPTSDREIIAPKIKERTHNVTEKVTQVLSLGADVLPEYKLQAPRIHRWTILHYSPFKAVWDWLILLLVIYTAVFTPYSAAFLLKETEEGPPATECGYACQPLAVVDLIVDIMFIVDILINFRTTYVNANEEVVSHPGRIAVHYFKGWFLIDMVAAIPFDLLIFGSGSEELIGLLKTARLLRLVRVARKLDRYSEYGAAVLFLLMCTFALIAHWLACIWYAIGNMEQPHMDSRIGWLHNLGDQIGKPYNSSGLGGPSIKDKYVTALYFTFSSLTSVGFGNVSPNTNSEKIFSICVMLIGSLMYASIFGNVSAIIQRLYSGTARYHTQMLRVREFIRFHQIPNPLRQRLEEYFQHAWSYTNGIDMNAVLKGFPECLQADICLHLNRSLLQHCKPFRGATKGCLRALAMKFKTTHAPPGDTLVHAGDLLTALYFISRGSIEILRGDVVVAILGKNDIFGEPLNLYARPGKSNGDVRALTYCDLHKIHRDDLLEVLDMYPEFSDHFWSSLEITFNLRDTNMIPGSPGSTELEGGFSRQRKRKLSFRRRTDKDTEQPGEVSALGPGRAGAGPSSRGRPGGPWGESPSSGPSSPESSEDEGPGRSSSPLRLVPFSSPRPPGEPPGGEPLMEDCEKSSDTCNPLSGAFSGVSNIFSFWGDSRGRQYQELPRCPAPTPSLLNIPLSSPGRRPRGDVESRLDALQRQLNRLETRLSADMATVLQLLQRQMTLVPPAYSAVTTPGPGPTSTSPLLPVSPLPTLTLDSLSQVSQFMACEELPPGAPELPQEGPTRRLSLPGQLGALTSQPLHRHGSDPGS
row,Compound,"hERG current change (%, negative = inhibition) at 10uM [%]"
1,CN(C)S(=O)(=O)N1CCc2ccc(NC(=O)c3ccc(C(F)(F)F)cc3)cc2C1,25.4
2,CC(=O)c1c(C(C)=O)c(C)n(NC(=O)c2ccccc2Cl)c1C,9.86
3,CCN(C(=O)c1cc(Cl)ccc1OC)c1ccccc1,2.78
4,COC(CNC(=O)[C@H](Cc1ccccc1)N1Cc2ccccc2C1=O)OC,10.1
5,CCCNC(=O)N1[C@H]2CC[C@@H]1C(C(=O)OC)=C(c1c(C)noc1C)C2,16.4
6,CCOc1cc(Br)ccc1S(=O)(=O)N1CCC(C(N)=O)CC1,-5.26
7,O=C(Nc1cc(N2CCOCC2)ncn1)c1ccc(F)cc1,-9.31
8,O=C(c1ccc(N2CCOCC2)nc1)N1CCOCC1,6.45
9,CCN(CC)C(=O)CSc1nc(O)cc(=O)n1CC,5.51
10,CCN(CC)C(=O)C1CCCN(C(=O)Nc2ccccc2)C1 (stereo not drawn),-6.28
11,N#CC1=C(S)N(c2ccccc2)C(c2ccc(-c3ccccc3Cl)o2)NC1=O (stereo not drawn),13.1
12,CCN(Cc1ccncc1)C(=O)c1cc(COc2c(F)cccc2F)on1,-36
13,O=C(C1CCN(S(=O)(=O)c2ccc(Cl)cc2)CC1)N1CCC1,2.3
14,CCC(C)NC(=O)c1ccc(-n2c(=S)[nH]c3ccccc3c2=O)cc1 (stereo not drawn),26.8
15,CCC(=O)c1cc(F)ccc1OCC(=O)Nc1ccc2c(c1)OCCO2,-1.84
16,Cn1c(=O)c2[nH]c(=O)cnc2n(C)c1=S,20.7
17,Cc1ccccc1Oc1ncnc2oc(-c3ccccc3)cc12,20.4
18,CCC1=NN(C(=O)c2ccc(Cl)cc2)C(O)(c2ccc(C)cc2)C1 (stereo not drawn),-0.418
19,Cc1nnc(NC(=O)CSC2CCCCC2)s1,-1.03
20,COCc1c(C(=O)OC)nnn1-c1ccccc1,-3.86
21,O=C(Nc1nnc(-c2ccccn2)o1)c1ccc(Br)cc1,4.65
22,CN1C(=O)/C(=C/c2ccccc2F)Sc2ccc(C(=O)NCC3CCCO3)cc21 (stereo not drawn),-25.9
23,O=C(c1cn(-c2ccccc2)nc1-c1ccc(Cl)s1)N1CCOCC1,-20.9

row,Compound,"hERG current change (%, negative = inhibition) at 10uM [%]"
1,CCN1CCN(Cc2ccc(NC(=O)c3ccc(C)c(NC(=O)c4ccnnc4)c3)cc2C(F)(F)F)CC1,13
2,O=C(Nc1ccccc1)Nc1nnc(CSCc2ccccc2Cl)s1,6.19
3,CN(CC(=O)Nc1ccc(F)cc1)C(=O)c1ccccc1OCc1ccc(F)cc1,-3.3
4,C=CCc1ccc(OC)cc1,9.91
5,CC1CCC(C(=O)NC(C(=O)Nc2ccccn2)C(C)C)CC1 (stereo not drawn),9.1
6,Cl.Nc1c2c(nc3ccccc13)CCCC2.O,-42.3
7,Cc1oc(-c2ccccc2)cc1C(=O)NC1CCN(Cc2ccccc2)CC1,11.1
8,CC1(C)CC(=O)C=C(C(=O)N2CCCC(C(=O)c3cccc(Cl)c3)C2)O1 (stereo not drawn),-31
9,O=C(CSC1c2ccccc2-c2ccccc21)N/N=C/c1ccccc1C(=O)O,-9.61
10,O=C(Nn1c(Cc2cccs2)nc2ccccc2c1=O)c1ccc(F)c(F)c1,18.1
11,Cc1ccc(N2CCN(C(=O)c3nn(C)c4c3CS(=O)(=O)c3ccccc3-4)CC2C)cc1 (stereo not drawn),-30.3
12,COc1ccc(-c2oc(NC(C)=O)c(C#N)c2-c2ccc(OC)cc2)cc1,-5.55
13,COc1ccc(/C=N/N2C(=O)c3ccccc3C2=O)cc1,2.53
14,COc1ccc(-c2nc3c(s2)CN(S(C)(=O)=O)CC3)cc1OC,15.2
15,CC(=O)c1ccc(OCc2cc(C(=O)NCCn3nc(C)cc3C)no2)cc1,1.56
16,CC(C)(C)CNC(=O)[C@]1(C)CCC[C@@]2(C)C3CC[C@@]4(C)C[C@]3(CCC21)CC4=O (stereo partly drawn),-0.0524
17,COc1ccc(OCC(O)Cn2c(=N)n(Cc3ccccc3)c3ccccc32)cc1.Cl (stereo not drawn),-73.5
18,C=CCc1ccc(OCCCCN2CC(C)OC(C)C2)c(OC)c1.O=C(O)C(=O)O (stereo not drawn),-25.8
19,O=C(Cc1ccccc1)NC(=S)Nc1cc(C(F)(F)F)ccc1Cl,13.8
20,Cc1ccc(-c2cnc3ccccc3n2)cc1C,5.03
21,CN(C)c1nc2n(c(=O)n1)C(C#N)CS2 (stereo not drawn),0.755
22,Cc1ccc(C)c(C2=CSC3=NS(=O)(=O)CCN23)c1,12.3
